# The supplement of paper PMC3334620
# Over roughly 33,000 sequences, “E-score (-0.5 to 0.5)” has its median near -0.01; the highest 2% begin near 0.26. This is one part of the list.
# Target: Ste12 (UniProt P13574)
# Test: PBM E-score (8-mer binding enrichment) (E-score (-0.5 to 0.5)); higher = stronger / more preferred TF binding; most listed sequences are background and not binding sites
# Details: protein concentration: 200 nM; construct: GST-DNA-binding domain
# Method in brief: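 GST-tagged yeast TFs (full-length or DNA-binding domain) were made by PURExpress in vitro transcription/translation and applied at about 100-200 nM to universal all-10-mer Agilent arrays. The arrays were made double-stranded by primer extension, on fresh or once-stripped slides. Bound protein was detected with fluorescent anti-GST, and scans were normalised with masliner. Each ungapped eight-base word, pooled with its reverse complement, received an E-score (modified Wilcoxon-Mann-Whitney statistic) from the Universal PBM Analysis Suite.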
row,Sequence,PBM E-score
1,ACTGCGCG,0.0441
2,AGGGAAGA,-0.237
3,AGCCGTCG,-0.0558
4,CATGTAGG,-0.105
5,ATGGATAA,0.121
6,AGGGAATC,-0.21
7,ATAACGAT,0.0265
8,GACTATTA,0.13
9,TTTAAAAA,0.184
10,AGGAAAAC,-0.0394
11,CTCACTGC,-0.257
12,ATGGCAGC,0.0325
13,GAAACGTC,0.303
14,ATGGTCTA,-0.163
15,CCAATAGG,-0.0766
16,CTATTAGA,-0.166
17,TCTGAACA,0.0453
18,ATACAGAT,0.0655
19,AAATATCA,0.238
20,CCCGATAC,0.031
21,GTGCCAAA,-0.0321
22,AAGTTACC,0.0128
23,CCGGCCCA,-0.203
24,CTACGAAC,-0.148
25,AAGGGTTG,0.0867

row,Sequence,PBM E-score
1,ACTAGTCA,-0.171
2,CTCGCATA,-0.0282
3,CGGCGAAC,0.0131
4,ATTCAAAA,0.118
5,TGATGCCA,-0.182
6,CGGTTGTA,-0.21
7,GTGTGCGA,-0.061
8,CGGTCGAC,-0.0905
9,GTTGAGGA,0.0908
10,AAAATAAA,0.286
11,CCGCATTA,0.0736
12,ATACCCTC,-0.0306
13,ATCGAGTA,-0.0649
14,AGTTATGA,0.0754
15,CTTTGTGC,-0.0467
16,TCCACTCA,-0.132
17,CGCGGCGA,0.126
18,AACGGACG,-0.0491
19,ATGTTCTC,-0.124
20,CTACTTTC,-0.0458
21,AGCCGGGA,0.0148
22,ATGTCAGC,-0.0606
23,ACGGTTCT,-0.0453
24,CTTTAACA,0.144
25,GTTAATTA,0.186

row,Sequence,PBM E-score
1,AGAGTGAT,-0.166
2,CTACGGTA,-0.0646
3,AAACACAG,0.118
4,CCCGTTAC,0.0981
5,TCGTCAAA,0.184
6,AAGCTCCG,-0.031
7,AGCGAAGA,0.00299
8,TCGGTCCA,-0.021
9,GTACTGTA,-0.0841
10,ATGGCGAC,-0.207
11,ACTAATAG,0.0525
12,AAACTGAC,-0.00654
13,GATTTTCC,0.113
14,CTCTTCAA,0.0571
15,ACGAACTA,0.0471
16,AAACTGTC,0.0936
17,ATCCCCTC,0.303
18,CGTACGAA,0.131
19,CTTGTTAA,0.0962
20,AACTGCCT,0.0264
21,AAACTGCT,0.00125
22,CCTGCTTA,-0.142
23,CTGCTGTA,-0.0791
24,GAGATGTA,0.0232
25,GAAGAAGA,-0.00959

row,Sequence,PBM E-score
1,CGGGGTGC,-0.0698
2,AAGGGCTC,-0.334
3,CACTCATA,0.112
4,CGATGCCA,-0.141
5,AATTGTTG,0.112
6,GATAAAGA,0.0926
7,ACAGATTG,-0.0707
8,GTGACTCA,-0.0887
9,ACCACCTG,0.0688
10,GCAGTCAC,-0.153
11,CAAACCGC,0.00675
12,ACGCGCAA,0.241
13,AATCAAGT,-0.0217
14,AACTATGT,-0.0705
15,ACTAGAAT,0.277
16,ACCAGGGA,-0.169
17,CCGGGGAG,0.0943
18,ACTTCCAA,0.0619
19,ATGCACAT,-0.00451
20,ATTTGTCA,0.103
21,ATGTAAGA,0.15
22,ACACGACG,-0.154
23,CCGTAACA,0.149
24,CGGCTGGC,-0.117
25,AGCATTTG,0.0384

row,Sequence,PBM E-score
1,AAAGAAGG,-0.0585
2,GCGAAAGC,-0.133
3,AGTACAGG,-0.0362
4,ATAATGTC,0.112
5,AACGATTC,-0.0106
6,ACTTTCGG,-0.0381
7,CAAGTCGG,-0.0893
8,GTAGGCAC,-0.143
9,CTACACAG,-0.123
10,CCATCCGG,-0.0221
11,CGATATAA,0.124
12,AGAATTGG,-0.00675
13,CCGGAAAA,0.194
14,ACCAATGC,-0.0379
15,AATTTGGA,0.0607
16,CAAAGTAA,0.125
17,ACTTCAAA,0.082
18,ACCCTTCG,-0.0954
19,AGTATTCA,0.0882
20,TCATCCCA,0.0235
21,GACTCTAA,0.115
22,CCAGTAAA,0.116
23,AGGCTGCG,-0.101
24,CCTGGGCC,0.0535
25,TAATTTCA,0.239

row,Sequence,PBM E-score
1,ACCGAGTG,-0.197
2,TCATAAGA,0.12
3,CGCGGTAC,-0.0101
4,TACATCCA,-0.0746
5,AATGCAGC,-0.255
6,GGGGCATA,-0.0113
7,ACCAAAAG,0.13
8,CCGGATAG,-0.0141
9,GCATCAAC,0.109
10,AAAATTTA,0.085
11,CCTGTAAG,-0.136
12,ACTTCCCA,-0.102
13,ACGCCCGA,-0.011
14,CGAAAAAG,0.212
15,CTAGGTGC,-0.165
16,CGGCCGAC,-0.0134
17,ACAGAGAA,0.127
18,ACTGGCGG,0.0599
19,GTAAGTCA,-0.104
20,TATTGAGA,0.214
21,CCTTTAAG,-0.229
22,ACCGGCGG,0.0198
23,CGACCGGA,0.0132
24,GTGGAAGA,-0.173
25,TGACTCCA,-0.136

row,Sequence,PBM E-score
1,TTAATAAA,0.344
2,CACGTAGC,-0.239
3,CATGAACC,0.106
4,GAATTGGA,0.0509
5,CGTTGCCC,-0.185
6,CCCCTAAG,-0.112
7,GTACTTAA,-0.0414
8,CACAGGTC,-0.215
9,ATAGGCCG,-0.293
10,ATACAAAC,0.18
11,CACGTTCG,-0.173
12,CTAGGAGA,-0.177
13,AACCGCGT,0.117
14,GAGACCGA,-0.106
15,CAACGTCA,-0.125
16,TCCAAAAA,0.23
17,AGCCTGCC,-0.0832
18,GGCGCCGA,0.0102
19,AACGAACA,0.22
20,ACTCCTGG,-0.166
21,CCGATACG,-0.0585
22,CCGTCAGG,-0.197
